Results reported in paper PMC6212790.
This is one part of the list. At the low end of the ranking the order means little.

The sequences below were run against T1, GST-Rok (full length) (UniProt O34857) (assay: protein binding microarray). Conditions: Rok is a gene silencer of Bacillus subtilis; high values mean tight binding; most listed sequences are background and not binding sites; double strand, one strand shown.
T1 sequence: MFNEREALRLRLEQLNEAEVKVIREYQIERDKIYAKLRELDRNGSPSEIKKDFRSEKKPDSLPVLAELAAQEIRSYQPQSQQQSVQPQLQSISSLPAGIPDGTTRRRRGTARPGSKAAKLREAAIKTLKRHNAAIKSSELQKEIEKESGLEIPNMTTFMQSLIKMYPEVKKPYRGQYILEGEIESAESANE
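Also: rank score from −0.5 (least bound) to 0.5 (best bound).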

| Sequence | binding signal [E-score] |
| --- | --- |
| CTAAGGCA | 0.0902 |
| CTAATTAG | 0.375 |
| ACACATCC | -0.13 |
| GCGAAATA | 0.173 |
| CGTTAACC | -0.112 |
| ATGAGGCC | -0.166 |
| GCAACCGA | 0.0352 |
| CGTTGGGA | -0.188 |
| TCCCGTCA | -0.264 |
| CAAGTTCA | 0.099 |
| GCTGTGGA | -0.12 |
| ATTTAGAC | 0.0629 |
| AGATCGCG | 0.000221 |
| GCGCTGTA | 0.162 |
| ACGGTCAG | -0.115 |
| GAGGCACA | -0.128 |
| GTTTTTCA | -0.177 |
| TCTCCCCA | -0.126 |
| ACGCCAGG | -0.146 |
| CATGTGAG | -0.0984 |
| CGAACACC | -0.0633 |
| ATTCCATG | 0.168 |
| CGGCCGCC | -0.38 |
| AAGAGCCA | -0.223 |
| CATTCTCC | -0.0961 |

| Sequence | binding signal [E-score] |
| --- | --- |
| CGGTAAAC | 0.184 |
| ACGCAAAG | -0.0351 |
| GTTTCAGA | 0.0234 |
| ACGATGTG | 0.0494 |
| CATTGGCC | -0.337 |
| AAAGTTCT | 0.0582 |
| GGTAGCGA | 0.0576 |
| ATTTTAGA | 0.168 |
| GAAGCGCC | -0.244 |
| GACCCCGC | -0.344 |
| ATCTTGTC | 0.116 |
| CGTACACA | 0.16 |
| CTTCCACC | -0.268 |
| AAATGTTA | 0.185 |
| CCGACAGC | -0.0139 |
| GGGGAGAC | -0.262 |
| CTGACAGA | 0.0624 |
| ATATAATC | 0.152 |
| AGCTGCGA | -0.00607 |
| CAACATGA | 0.0494 |
| AGTAGCCA | -0.0245 |
| CTGGGCTA | 0.0101 |
| AAAGAAGC | -0.0244 |
| CCTATCCA | -0.0329 |
| CAGTCTCA | -0.00808 |

| Sequence | binding signal [E-score] |
| --- | --- |
| GACAACCC | -0.241 |
| ATGGAGCC | -0.237 |
| CTGTAGAC | 0.117 |
| AGGGTAGC | -0.0989 |
| AACTTGCT | 0.079 |
| ATAAGGGA | -0.112 |
| ACGGCTAT | 0.0117 |
| GCGACTAA | -0.128 |
| GGTAGAAC | 0.374 |
| AAGTGCAG | 0.000661 |
| AATAGCCT | 0.0206 |
| ACACGTGG | -0.00298 |
| CGAAGTGA | -0.0568 |
| AGTGATAT | 0.299 |
| TATGAGCA | 0.00785 |
| CTTGTCAC | -0.236 |
| CCAAGCTC | -0.269 |
| AAGTCAGG | 0.0364 |
| CCTCCTAG | -0.305 |
| CAGCGCCA | -0.299 |
| AAGGCAGA | -0.261 |
| ACCTGAGG | -0.131 |
| TCTAGGCA | -0.0401 |
| ACTAACGG | 0.269 |
| CCGCATAC | 0.0121 |

| Sequence | binding signal [E-score] |
| --- | --- |
| CGCTATTA | 0.211 |
| GATAGCCA | -0.128 |
| CGCGTCCC | -0.235 |
| AGCCCTGA | -0.252 |
| ACCCCATA | -0.257 |
| ATGATGAC | 0.162 |
| AGACCTTG | -0.161 |
| TCAAATGA | 0.0213 |
| CGAGTTAG | 0.0866 |
| TAAGAAGA | -0.0534 |
| AGTGGACA | 0.0404 |
| CGCGCTAC | 0.0272 |
| AGGGCATC | -0.128 |
| AGTGGATG | 0.0468 |
| GCCGGCCA | -0.186 |
| AATACAAA | 0.206 |
| AACCTCTG | -0.244 |
| GAGTACTA | 0.13 |
| ATCTATTG | 0.282 |
| ACTTAAAA | -0.0205 |
| AGCTGAAA | 0.118 |
| ATAAGGAC | -0.2 |
| AAGTTTTC | -0.00426 |
| CCTTATCC | -0.193 |
| ATCCGGTC | -0.0705 |

| Sequence | binding signal [E-score] |
| --- | --- |
| CTGGATCC | -0.0878 |
| ACTATTAA | 0.289 |
| AAGGTGGC | -0.203 |
| GGCCCTCA | -0.333 |
| GAAGGATC | -0.19 |
| GGCGAACC | -0.172 |
| CTTTAATA | 0.17 |
| ATCCTGGC | 0.0825 |
| GCAAGTGC | -0.0648 |
| GGCATTAA | -0.00985 |
| AGGTGAGG | -0.304 |
| CACGGACC | -0.368 |
| ACATGGAG | 0.0619 |
| GGAGTCGA | -0.216 |
| GCTCTCAA | -0.174 |
| AACGAATA | -0.0498 |
| AAATAAAT | 0.277 |
| CATTGAAA | -0.0384 |
| CATCAGCA | 0.0614 |
| CGCGCTGC | -0.189 |
| AATTGGTG | -0.022 |
| ACTCTGGA | -0.14 |
| ACGGGTCA | -0.352 |
| TAGTTTCA | 0.392 |
| CATGACCC | 0.0788 |

| Sequence | binding signal [E-score] |
| --- | --- |
| TAAAATTA | 0.199 |
| CGCGCCAA | -0.0904 |
| CCAATTCA | -0.128 |
| TAAAGTTA | 0.241 |
| TCCACGAA | 0.0984 |
| AGTCAACA | -0.00312 |
| CATCCTTA | -0.0116 |
| ATCATAAC | 0.124 |
| AATGTAAG | 0.143 |
| CACGGAGG | -0.272 |
| GCATTAGC | -0.0546 |
| CGCATCCA | -0.0328 |
| GAGTTTCA | -0.16 |
| ATCGTGAA | 0.0977 |
| CGCTAAAG | -0.0203 |
| AGTAGTGA | 0.0919 |
| AAACGCGT | 0.0134 |
| CAATAACA | 0.0252 |
| GGTCTCAA | -0.171 |
| ACCCAGGA | -0.0255 |
| AAAAGGGG | -0.259 |
| CACCGGAC | -0.206 |
| ATCGAGTA | 0.291 |
| AAGAATGC | -0.133 |
| CTTTTTAA | -0.0243 |

| Sequence | binding signal [E-score] |
| --- | --- |
| CAACCCAC | -0.205 |
| GGAGTCCA | -0.17 |
| TCAGCACA | -0.0657 |
| CTAACGTA | 0.15 |
| ATAGTCGA | 0.117 |
| TAGTACAA | 0.265 |
| GTGCCCAC | -0.113 |
| ACTTGACT | 0.0107 |
| AAATGCGT | 0.153 |
| GATCACCC | -0.243 |
| ACGTTTAC | 0.0787 |
| GACTTACC | 0.136 |
| TCCCTTAA | -0.159 |
| CCCCAACA | -0.198 |
| CACTACAA | 0.143 |
| ACACGGCG | -0.143 |
| GAGGTTGA | -0.0617 |
| CGGACAAC | -0.223 |
| TACCGGTA | 0.37 |
| CACTCGAA | -0.000333 |
| CGTCTACC | 0.0246 |
| CCGATAGC | 0.0165 |
